No constants are given. Whether binding was seen depends on the method and setting. Binding seen in cells or lysates may run through a third protein. Some binding calls cover weakened binding; strength is not graded here. Sequences can lack the tags named with a protein.
Key:
Experiment in all cases: co-IP; transient cotransfection of FLAG-YTHDF1, 2 or 3 with V5-MAGEL2 or V5-CtermMAGEL2; FLAG immunoprecipitation (anti-FLAG M2 affinity gel); V5 immunoblot
FLAG-YTHDF1 = target: T1, FLAG-YTHDF1 (UniProt Q9BYJ9)
T1 sequence: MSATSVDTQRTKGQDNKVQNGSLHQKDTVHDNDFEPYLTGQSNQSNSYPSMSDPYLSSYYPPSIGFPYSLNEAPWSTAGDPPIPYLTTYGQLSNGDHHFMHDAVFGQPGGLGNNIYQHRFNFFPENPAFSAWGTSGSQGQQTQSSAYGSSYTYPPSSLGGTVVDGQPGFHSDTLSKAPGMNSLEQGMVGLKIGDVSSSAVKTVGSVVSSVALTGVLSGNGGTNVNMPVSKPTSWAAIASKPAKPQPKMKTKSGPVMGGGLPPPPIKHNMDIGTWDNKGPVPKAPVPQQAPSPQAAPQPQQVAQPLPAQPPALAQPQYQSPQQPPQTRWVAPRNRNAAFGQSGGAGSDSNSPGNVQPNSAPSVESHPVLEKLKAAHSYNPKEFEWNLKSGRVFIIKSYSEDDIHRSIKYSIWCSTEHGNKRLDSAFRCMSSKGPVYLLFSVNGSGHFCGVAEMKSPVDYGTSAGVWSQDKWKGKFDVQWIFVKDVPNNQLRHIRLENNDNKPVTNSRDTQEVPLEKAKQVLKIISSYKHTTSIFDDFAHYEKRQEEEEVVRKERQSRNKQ

The chains behind the UniProt entries cited, without tags or fusion partners. Where a name states a change or a piece, a line headed by the entry shows the natural chain unless it says otherwise.
UniProt Q9UJ55: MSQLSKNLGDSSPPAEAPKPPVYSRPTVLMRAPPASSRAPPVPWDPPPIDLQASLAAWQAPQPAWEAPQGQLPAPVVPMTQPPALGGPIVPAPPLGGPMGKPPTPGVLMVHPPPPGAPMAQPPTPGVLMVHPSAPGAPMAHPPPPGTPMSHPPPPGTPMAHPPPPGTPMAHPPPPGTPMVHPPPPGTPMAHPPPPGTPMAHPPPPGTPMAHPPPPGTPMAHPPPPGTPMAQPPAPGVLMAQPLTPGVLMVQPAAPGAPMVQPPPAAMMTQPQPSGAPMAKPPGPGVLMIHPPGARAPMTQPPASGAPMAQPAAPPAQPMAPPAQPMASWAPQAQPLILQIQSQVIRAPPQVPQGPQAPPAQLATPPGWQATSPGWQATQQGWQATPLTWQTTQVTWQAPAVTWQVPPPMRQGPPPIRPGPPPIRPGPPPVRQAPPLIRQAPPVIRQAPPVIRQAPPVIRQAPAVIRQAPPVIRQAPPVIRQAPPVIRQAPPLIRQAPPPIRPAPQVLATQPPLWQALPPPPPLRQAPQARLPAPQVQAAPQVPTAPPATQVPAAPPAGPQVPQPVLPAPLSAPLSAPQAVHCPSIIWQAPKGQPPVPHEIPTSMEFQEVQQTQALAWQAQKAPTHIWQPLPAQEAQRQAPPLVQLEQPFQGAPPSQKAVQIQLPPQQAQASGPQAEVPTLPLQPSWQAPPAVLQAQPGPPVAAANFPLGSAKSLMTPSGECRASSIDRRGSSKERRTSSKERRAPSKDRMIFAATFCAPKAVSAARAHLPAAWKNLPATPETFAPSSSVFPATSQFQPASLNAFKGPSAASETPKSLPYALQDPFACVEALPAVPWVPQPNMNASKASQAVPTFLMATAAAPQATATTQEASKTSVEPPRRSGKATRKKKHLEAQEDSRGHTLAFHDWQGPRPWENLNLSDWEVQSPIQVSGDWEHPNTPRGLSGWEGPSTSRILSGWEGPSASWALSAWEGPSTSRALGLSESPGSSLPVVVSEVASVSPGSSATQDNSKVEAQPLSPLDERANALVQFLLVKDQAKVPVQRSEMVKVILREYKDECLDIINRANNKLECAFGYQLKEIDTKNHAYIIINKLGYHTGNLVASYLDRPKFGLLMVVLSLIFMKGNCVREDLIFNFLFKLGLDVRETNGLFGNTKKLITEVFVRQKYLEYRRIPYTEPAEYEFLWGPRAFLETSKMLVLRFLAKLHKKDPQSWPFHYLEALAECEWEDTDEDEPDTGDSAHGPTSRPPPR

FLAG-YTHDF2 = target: T2, FLAG-YTHDF2 (UniProt Q9Y5A9)
T2 sequence: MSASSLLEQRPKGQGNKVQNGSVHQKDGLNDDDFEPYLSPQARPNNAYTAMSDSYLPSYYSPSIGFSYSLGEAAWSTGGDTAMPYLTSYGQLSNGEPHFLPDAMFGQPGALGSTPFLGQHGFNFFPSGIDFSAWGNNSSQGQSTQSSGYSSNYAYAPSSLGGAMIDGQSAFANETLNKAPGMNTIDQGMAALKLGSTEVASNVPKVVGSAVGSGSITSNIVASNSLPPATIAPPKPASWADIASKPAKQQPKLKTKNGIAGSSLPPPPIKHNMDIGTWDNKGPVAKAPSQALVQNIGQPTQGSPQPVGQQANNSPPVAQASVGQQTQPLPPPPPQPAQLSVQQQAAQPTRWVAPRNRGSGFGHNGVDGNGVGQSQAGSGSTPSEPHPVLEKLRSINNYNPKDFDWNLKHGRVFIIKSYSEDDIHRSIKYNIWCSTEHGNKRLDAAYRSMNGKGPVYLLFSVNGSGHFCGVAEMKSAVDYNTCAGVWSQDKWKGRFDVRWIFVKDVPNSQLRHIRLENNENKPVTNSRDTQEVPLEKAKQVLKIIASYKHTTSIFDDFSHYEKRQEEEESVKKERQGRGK

FLAG-YTHDF3 = target: T3, FLAG-YTHDF3 (UniProt Q7Z739)
T3 sequence: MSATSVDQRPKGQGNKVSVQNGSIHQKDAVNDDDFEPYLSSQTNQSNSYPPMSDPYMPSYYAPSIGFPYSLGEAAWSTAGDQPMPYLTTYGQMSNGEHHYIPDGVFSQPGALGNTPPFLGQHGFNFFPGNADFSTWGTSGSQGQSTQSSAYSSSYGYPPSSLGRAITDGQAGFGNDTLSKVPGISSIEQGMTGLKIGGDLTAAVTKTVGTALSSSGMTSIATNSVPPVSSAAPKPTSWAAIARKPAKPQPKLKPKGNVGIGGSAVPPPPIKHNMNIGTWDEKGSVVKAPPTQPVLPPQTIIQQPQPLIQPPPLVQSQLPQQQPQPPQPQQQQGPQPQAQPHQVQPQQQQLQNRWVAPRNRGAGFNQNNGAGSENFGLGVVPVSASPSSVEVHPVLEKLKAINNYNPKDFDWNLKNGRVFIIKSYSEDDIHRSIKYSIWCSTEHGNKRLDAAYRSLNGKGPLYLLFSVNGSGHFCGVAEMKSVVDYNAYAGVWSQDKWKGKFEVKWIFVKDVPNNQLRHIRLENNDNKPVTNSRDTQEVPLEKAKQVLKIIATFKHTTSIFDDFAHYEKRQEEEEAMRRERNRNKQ

Substance: V5-tagged CtermMAGEL2 (from UniProt Q9UJ55 605-1249) (domain or fragment)
- binding (FLAG-YTHDF1): no binding
- binding (FLAG-YTHDF2): no binding
- binding (FLAG-YTHDF3): no binding

Substance: V5-MAGEL2 (from UniProt Q9UJ55 1-1249)
- binding (FLAG-YTHDF1): binds
- binding (FLAG-YTHDF2): binds
- binding (FLAG-YTHDF3): binds
